# Reference: PubChem BioAssay (Tox21)
# “And” between values parts separate entries of the source, which are not always exact repeats. Equal values may be shown once. This list was built around the results that the source calls inconclusive (neither active nor inactive); the mix of calls is not that of the screen. For part of these data: Potencies beside an inconclusive call are fits to weak or partial responses and may not hold up. Where a structure was tested more than once in an assay, its records may differ in their call. The source made the active and inactive calls. Unless noted, calls follow the shape of the dose curve; as a rule, active = well fitted curve in the direction sought with a large enough effect in the repeat runs; inconclusive = weak or mixed curves; inactive = no such curve, though single readings can be large; an effect the other way counts as inactive or inconclusive.
# Legend:
# [1] = qHTS assay to identify small molecule antagonists of the estrogen related receptor signaling pathway with the pleiotropic PPARgamma coactivator (PGC) from Tox21 10K library - cell viability counter screen (AID 1224840; active = well fitted cell-killing curve with a large enough effect in the repeat runs, not every such curve was filed as active; inconclusive = weak or mixed curves, or effect the other way; inactive = no such curve, though single readings can be large or run the other way; also: nearly all actives have a fitted effect of over 40% in size; also: potency is read from the fitted curve at half-maximal effect); details: PGC/ERR reporter cells viability, CellTiter-Fluor, 17.5 h; series mostly up to 92.4 µM
# How it was run: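 Cell viability is measured by CellTiter-Fluor fluorescence in PGC/ERR cells that receive compounds after a 6-hour attachment period and are then incubated 17.5 hours at 37 C.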
# [2] = molecular target: Nuclear receptor subfamily 1 group I member 3 (Homo sapiens) (UniProt Q14994); experiment: qHTS assay to identify small molecule agonists of the constitutive androstane receptor (CAR) signaling pathway (AID 1224839); details: HepG2 hCAR CYP2B6-luciferase, agonist mode, 24 h; series mostly up to 92.4 µM; also: nearly all actives have a fitted effect of over 15% in size; also: potency is read from the fitted curve at half-maximal effect;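 as to activation: HepG2 cells stably carrying human CAR and a CYP2B6 luciferase reporter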
# Sequence of UniProt Q14994 (Q14994 whole entry, looked up): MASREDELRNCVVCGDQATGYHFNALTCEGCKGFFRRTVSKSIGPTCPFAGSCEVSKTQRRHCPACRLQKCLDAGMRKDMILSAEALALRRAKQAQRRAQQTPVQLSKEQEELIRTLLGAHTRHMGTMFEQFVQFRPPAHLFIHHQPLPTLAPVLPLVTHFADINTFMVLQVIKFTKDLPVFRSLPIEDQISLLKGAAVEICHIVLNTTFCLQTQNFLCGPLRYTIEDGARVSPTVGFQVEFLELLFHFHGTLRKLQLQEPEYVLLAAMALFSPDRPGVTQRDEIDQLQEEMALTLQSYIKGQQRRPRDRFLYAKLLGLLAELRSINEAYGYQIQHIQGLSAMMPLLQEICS
# How it was run: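 Stable hCAR/CYP2B6-2.2kb HepG2 line in DMEM with 10% FBS; compounds (15 concentrations) and 0.75 uM PK11195 final, 24 h at 37 C/5% CO2, then ONE-Glo luminescence after 30 min.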
# [3] = qHTS RealTime-Glo MT Cell Viability Assay in HepG2 cells - 24 hour (AID 1224867); details: RealTime-Glo luminescence; series mostly up to 76.8 µM; also: nearly all actives have a fitted effect of over 50% in size; also: potency is read from the fitted curve at half-maximal effect
# How it was run: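 Cells + NanoLuc/prosubstrate dispensed (600 cells/well) → 5 h at 37 C/5% CO2 → compounds in DMSO transferred → 40 h incubation at 37 C, luminescence read at 0, 8, 16, 24, 32, 40 h.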
# [4] = qHTS assay to identify small molecule agonists of the estrogen related receptor signaling pathway with the pleiotropic PPARgamma coactivator (PGC) from Tox21 10K library (AID 1224842); details: PGC/ERR reporter cell line, luciferase ONE-Glo, 18 h; series mostly up to 42.5 µM; also: nearly all actives have a fitted effect of over 15% in size; also: potency is read from the fitted curve at half-maximal effect
# How it was run: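 PGC/ERR reporter cell line, 2,000 cells per well, incubated 6 h at 37 C before 23 nL compound in DMSO was added. After 18 h at 37 C, One-Glo luminescence read following 30 min at room temperature.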
# [5] = qHTS assay to identify small molecule antagonists of the estrogen related receptor (ERR) signaling pathway from Tox21 library (AID 1224848); details: ERR reporter cell line, luciferase antagonist mode, 18 h; series mostly up to 92.4 µM; also: potency is read from the fitted curve at half-maximal effect; nearly all actives have a fitted effect of over 50% in size
# How it was run: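 Quantitative high-throughput format: ERR reporter cells (2,000/well) pre-incubated 6 h, treated 18 h at 37 C with compounds in DMSO alongside positive and negative controls, then read by ONE-Glo luminescence.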
# [6] = qHTS RealTime-Glo MT Cell Viability Assay in HEK293 cells - 32 hour (AID 1224868); details: RealTime-Glo luminescence; series mostly up to 76.8 µM; also: potency is read from the fitted curve at half-maximal effect; nearly all actives have a fitted effect of over 50% in size
# How it was run: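 Tox21 10K qHTS, HEK293, 600 cells/well, RealTime-Glo reagent co-dispensed with cells; 5 h preincubation, compound by pintool, 37 C, luminescence at 0–40 h.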
# [7] = molecular target: Thyrotropin receptor (Homo sapiens) (UniProt P16473); experiment: qHTS assay to identify small molecule agonists of the thyroid stimulating hormone receptor (TSHR) signaling pathway (AID 1224843; calls by dose curve; also: nearly all actives have a fitted effect of over 45% in size; also: potency is read from the fitted curve at half-maximal effect); details: TSHR-HEK293 cells, cAMP HTRF, agonist mode, 30 min; activation: at 92.4 µM (top of the series) unless noted
# Sequence of UniProt P16473 (P16473 whole entry, looked up): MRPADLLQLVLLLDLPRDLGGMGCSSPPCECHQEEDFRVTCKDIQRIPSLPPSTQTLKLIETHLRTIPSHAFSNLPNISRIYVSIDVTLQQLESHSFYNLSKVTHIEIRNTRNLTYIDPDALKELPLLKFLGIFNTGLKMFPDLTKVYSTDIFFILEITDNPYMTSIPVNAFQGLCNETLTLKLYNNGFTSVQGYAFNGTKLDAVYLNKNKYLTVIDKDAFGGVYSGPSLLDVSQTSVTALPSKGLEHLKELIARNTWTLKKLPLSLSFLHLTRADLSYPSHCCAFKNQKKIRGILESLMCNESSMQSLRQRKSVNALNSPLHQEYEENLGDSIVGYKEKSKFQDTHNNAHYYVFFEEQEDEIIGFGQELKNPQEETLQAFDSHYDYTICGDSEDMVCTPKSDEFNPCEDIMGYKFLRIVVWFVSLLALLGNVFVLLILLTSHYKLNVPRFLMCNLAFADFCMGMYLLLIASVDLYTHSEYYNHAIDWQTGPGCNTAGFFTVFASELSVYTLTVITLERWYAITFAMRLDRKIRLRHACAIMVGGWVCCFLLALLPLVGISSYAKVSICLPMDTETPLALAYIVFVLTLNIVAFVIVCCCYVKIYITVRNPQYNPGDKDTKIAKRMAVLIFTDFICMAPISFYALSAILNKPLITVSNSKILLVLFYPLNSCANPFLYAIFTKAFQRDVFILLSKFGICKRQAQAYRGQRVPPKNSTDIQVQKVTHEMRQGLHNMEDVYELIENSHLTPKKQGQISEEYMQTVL
# How it was run: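 Agonist-mode screen: TSHR HEK293 cells received test chemicals for half an hour at room temperature, then HTRF cAMP detection reagents for one hour prior to fluorescence measurement. Each chemical ran as a 15-concentration series, triplicated.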
# [8] = qHTS assay to identify small molecule agonists of H2AX - cell viability counter screen (AID 1224847; calls by dose curve; also: nearly all actives have a fitted effect of over 30% in size; also: potency is read from the fitted curve at half-maximal effect); details: CHO-K1 viability, CellTiter-Glo luminescence, 3 h; series mostly up to 154 µM
# How it was run: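 Viability of CHO-K1 (wild type) cells after 3 hr compound exposure was measured by CellTiter-Glo luminescence.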
# [9] = qHTS assay to identify small molecule antagonists of the estrogen related receptor signaling pathway with the pleiotropic PPARgamma coactivator (PGC) from Tox21 10K library (AID 1224841; call rule not given here; also: actives are mostly falling curves and most rising ones were filed inactive; nearly all actives have a fitted effect of over 50% in size; also: potency is read from the fitted curve at half-maximal effect); details: PGC/ERR reporter cell line, ONE-Glo luciferase, 18 h; series mostly up to 92.4 µM
# How it was run: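 Cells stably carrying the PGC/ERR reporter, seeded at 2,000 per well, received pin-transferred compounds 6 h post-plating. Exposure lasted 18 h at 37 C. Signal: One-Glo luminescence.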
# [10] = qHTS assay to identify small molecule agonists of the hypoxia (HIF-1) signaling pathway - cell viability counter screen (AID 1224844; calls by dose curve; also: nearly all actives have a fitted effect of over 50% in size; also: potency is read from the fitted curve at half-maximal effect); details: HRE-bla ME-180 viability, CellTiter-Glo luminescence, 17 h; series mostly up to 76.8 µM
# How it was run: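 Viability counter screen: HRE-bla ME-180 cells plated 5 hrs before compound addition, treated 17 hrs at 37C and 5% CO2, then CellTiter-Glo added after the FRET reporter read; luminescence after 30 min.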
# [11] = qHTS assay to identify small molecule agonists of the hypoxia (HIF-1) signaling pathway (AID 1224846; active = well fitted activation curve with a large enough effect in the signal ratio in the repeat runs, not every such curve was filed as active; inconclusive = weak or mixed curves; the % refers to the signal ratio; also: potency is read from the fitted curve at half-maximal effect); details: HRE-bla ME-180 cells, beta-lactamase ratio, 17 h; activation: at 76.8 µM (top of the series) unless noted
# How it was run: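 Agonist mode reporter screen. ME-180 cells stably expressing bla under HRE control received test compounds in DMSO for 17 hrs (37C, 5% CO2), and beta-lactamase activity was then detected with the CCF4-AM FRET substrate.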
# [12] = qHTS assay to identify small molecule agonists of H2AX (AID 1224845; active = well fitted activation curve with a large enough effect in the signal ratio in the repeat runs, not every such curve was filed as active; inconclusive = weak or mixed curves; the % refers to the signal ratio); details: CHO-K1 phospho-H2AX Ser139 HTRF, 3 h; series mostly up to 154 µM
# How it was run: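 Wild-type CHO-K1 cells, plated overnight, exposed 3hr at 37C to 15 concentrations (0.76% DMSO final). Lysed, then HTRF anti-pH2AX (S139) cryptate and anti-H2AX-d2 antibodies, 24 hr room temperature; 665/620 nm emission read.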
# Tags tell the direction and shape of the fitted curve or compound fluorescence and quenching.
structure (smiles),measurement,setting,value
c1ccc(CNCCNCc2ccccc2)cc1,Potency,[1],inactive
O=C1CCC(=O)N1Cl,Potency,[2],inactive
same,Potency,[3],inactive
Cc1ccc2ccc3cccc4ccc1c2c34,Potency,[2],active: 30.6 µM
same,Potency,[4],"inconclusive: 27.3 µM [activator, single point]"
same,Potency,[5],"inconclusive: 68.5 µM [inhibitor, single point]"
same,Potency,[6],"inconclusive: 38.9 µM [cytotoxic, partial curve]"
C#CC(O)C(CC)CCCC (stereo not given),Potency,[1],inactive
C[C@]12C[C@H](O)[C@H]3[C@@H](CCC4=CC(=O)CC[C@@]43C)[C@@H]1CC[C@@H]2C(=O)CO,Potency,[2],inactive
same,Potency,[7],active: 12.2 µM
same,Potency,[8],inconclusive: 127 µM [cytotoxic] and inconclusive: 101 µM [cytotoxic]
same,Potency,[6],"inconclusive: 27.6 µM [cytotoxic, single point] and inconclusive: 19.5 µM [cytotoxic, partial curve]"
NC=O,Potency,[9],inactive
same,Potency,[4],inactive
Cc1ccc(O)c([C@H](CCN(C(C)C)C(C)C)c2ccccc2)c1,Potency,[1],"inconclusive: 33.5 µM [cytotoxic, single point]"
same,Potency,[10],"inconclusive: 21.3 µM [cytotoxic, partial curve]"
O=C(NO)C1(NS(=O)(=O)c2ccc(Oc3ccc(F)cc3)cc2)CCOCC1,Potency,[9],"inconclusive: 30.6 µM [falling, partial curve]"
same,Potency,[7],"inconclusive: 27.3 µM [activator, partial curve]"
same,Potency,[11],"inconclusive: 54.9 µM [falling, partial curve]"
same,Potency,[6],"inconclusive: 21.9 µM [cytotoxic, partial curve]"
O=C(O)Cc1ccc(-c2ccccc2)cc1,Potency,[9],inactive
Cc1cc(C(C)(C)C)c(O)c(C)c1Cn1c(=O)n(Cc2c(C)cc(C(C)(C)C)c(O)c2C)c(=O)n(Cc2c(C)cc(C(C)(C)C)c(O)c2C)c1=O,Potency,[9],"inconclusive: 27.3 µM [falling, single point]"
same,Potency,[10],"inconclusive: 6.92 µM [rising, full curve]"
same,Potency,[11],inconclusive: 49 µM
same,Potency,[5],"inconclusive: 15.4 µM [inhibitor, full curve]"
same,Potency,[3],"inconclusive: 49 µM [falling, partial curve]"
COc1ccccc1OCC1CNC(=O)O1 (stereo not given),Potency,[9],"inconclusive: 33.5 µM [falling, single point]"
O=C1CCCc2c(O)cccc21,Potency,[9],"inconclusive: 16.8 µM [falling, partial curve]"
CC(C)(C)CCCCCCOC(=O)c1ccccc1C(=O)OCCCCCCC(C)(C)C,Potency,[9],"inconclusive: 13.7 µM [falling, partial curve, poor fit]"
c1ccc2cc(Nc3ccc(Nc4ccc5ccccc5c4)cc3)ccc2c1,Potency,[9],"inconclusive: 17.3 µM [falling, partial curve]"
Nc1nc(-c2ccccc2)c(Br)c(=O)[nH]1,Potency,[1],inactive
same,Potency,[9],"inconclusive: 11.9 µM [falling, partial curve]"
same,Potency,[7],inactive
same,Potency,[10],inactive
same,Potency,[11],inactive
CCC1OCC(COc2ccc(Oc3ccccc3)cc2)O1 (stereo not given),Potency,[1],inactive
same,Potency,[4],"inconclusive: 6.86 µM [activator, partial curve]"
same,Potency,[7],"inconclusive: 8.63 µM [inhibitor, full curve]"
same,Potency,[8],"inconclusive: 1.79 µM [cytotoxic, single point]"
same,Potency,[6],"inconclusive: 27.5 µM [cytotoxic, partial curve, poor fit]"
CCC(C)(C)CC,Potency,[9],"inconclusive: 2.86 µM [falling, partial curve, poor fit]"
C[Si]1(C)O[Si](C)(C)O[Si](C)(C)O1,Potency,[9],inactive
CC(C)(O)c1ccccc1CC[C@@H](SCC1(CC(=O)O)CC1)c1cccc(/C=C/c2ccc3ccc(Cl)cc3n2)c1,Potency,[1],inactive
same,Potency,[3],inactive
O=C1c2ccccc2C(=O)N1CCl,Potency,[9],inactive
CN(C)CCN1CCN(c2cccc(Cl)c2)C1=O,Potency,[1],inactive
same,Potency,[3],inactive
same,Potency,[6],"inconclusive: 15.1 µM [cytotoxic, single point]"
O=C(O)C(O)[C@H](O)[C@@H](O)[C@H](O)[C@H](O)CO (stereo not given in full),Potency,[9],"inconclusive: 49.1 µM [falling, partial curve, poor fit]"
same,Potency,[11],inactive
same,Potency,[5],"inconclusive: 69.4 µM [inhibitor, single point]"
same,Potency,[6],"inconclusive: 62.4 µM [cytotoxic, partial curve, poor fit]"
CC1=CC2C3CC(C=C3C)C2C1 (stereo not given),Potency,[9],"inconclusive: 13.3 µM [falling, full curve]"
same,Potency,[7],inactive
same,Potency,[10],inactive
same,Potency,[8],inactive
same,Potency,[5],"inconclusive: 34.4 µM [inhibitor, partial curve, poor fit]"
CO/N=C1\CN(c2nc3c(cc2F)c(=O)c(C(=O)O)cn3C2CC2)CC1CN (stereo not given),Potency,[9],"inconclusive: 23.7 µM [falling, partial curve]"
same,Potency,[12],inactive
same,Potency,[5],"inconclusive: 29.8 µM [inhibitor, single point]"
